Experimental data as given in PubChem BioAssay AID757 (NMMLSC, 2007).
In all, about 190,000 compounds went through this assay and about 520 (0.27%) were called active. The inconclusive results got no clear call from the source; some entries with a clear call stand among them for comparison.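 How the source made its calls: active means GTP binding activity at least 20 points away from the 100% control level, either lower or higher; inconclusive means compound flagged as likely green fluorescent, judged across all proteins; inactive means the rest.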

These molecules were tested against Ras-related C3 botulinum toxin substrate 1 (Homo sapiens) (UniProt P63000) (assay: wildtype Rac1 GTP binding modulators, primary screen, biochemical, GST-Rac1 beads, flow cytometry, multiplex (AID 757)). Settings: fluorescent GTP binding, at 10 µM, actives lie on both sides, 0 = cold GTP competed, 100 = untreated.

SMILES | GTP binding activity (% of control)
CCOC(=O)N1CCN(C(=O)/C(=C/c2cccc3ccccc23)NC(=O)c2ccc(OC)cc2)CC1 | inconclusive: 107%
COc1cccc(NC(=O)CN(C)C(C)C(=O)Nc2ccc(C(C)=O)cc2)c1 (stereo unspecified) | inconclusive: 94%
CC1(C)CC(CCNS(=O)(=O)c2ccccc2)(c2ccccc2)CCO1 (stereo unspecified) | inconclusive: 103%
O=C(Nc1ccc2sc3ccccc3c(=O)c2c1)c1ccccc1Cl | inconclusive: 94%
Cc1ccc(C(=O)Nc2ccc3c(c2)CCC3)o1 | inconclusive: 107%
C=CCNC(=O)/C(=C\c1ccc(OC)cc1)NC(=O)c1ccc([N+](=O)[O-])cc1 | inconclusive: 90%
Cc1ccc(C2=NN(C3=NN=C(N)Cc4ncnn43)C(O)(C(F)(F)F)C2)cc1 (stereo unspecified) | inconclusive: 98%
CCn1cc(CNC(=O)c2cc(COc3ccc(F)cc3Cl)on2)cn1 | inconclusive: 83%
Cc1cc(NC(=O)c2cccs2)ncc1NC(=O)c1cccc(F)c1 | inconclusive: 97%
CSc1nc(N2CCOCC2)c2sccc2n1 | inconclusive: 93%
CCCN1C(=O)/C(=C/c2c(NCCCOCC)nc3c(C)cccn3c2=O)SC1=S | inconclusive: 102%
COC(=O)c1cc(OC)c(OC)cc1NC(=O)Nc1cccc(C(C)=O)c1 | inconclusive: 93%
Cc1c(CCC(=O)O)c(=O)oc2cc3occ(-c4ccc(F)cc4)c3cc12 | active: 68%
O=C(N/N=C/c1ccc([N+](=O)[O-])o1)c1cn(-c2ccccc2)nc1-c1ccc(Cl)cc1 | active: 79%
COc1ccc(/C=C/C(=O)Nc2ccc3nc4n(c(=O)c3c2)CCCC4)cc1 | inconclusive: 93%
Cc1cc(NC(=O)CN2CCN(Cc3ccccc3)CC2)nc2c1c(=O)oc1ccccc12 | inconclusive: 86%
O=C(N/N=C/c1ccccn1)c1cccc(S(=O)(=O)Nc2ccccc2Cl)c1 | inconclusive: 91%
CO/N=C/C(=N\Nc1cc(OC)cc(OC)c1)C(=O)c1ccccc1 | inconclusive: 87%
COc1cc(C(=O)Nc2nc3ccc4nc(C)sc4c3s2)cc(OC)c1OC | inconclusive: 99%
Cc1ccc(S(=O)(=O)N2CCC(C(=O)NNC(=O)c3cccnc3)CC2)cc1 | inactive: 98%
Cc1cccc(NC(=O)[C@H](Cc2ccccc2)NC(=O)OCc2ccccc2)c1 | inconclusive: 102%
CCCc1cc(-n2ccnc2)n2c(nc3ccccc32)c1C#N | inconclusive: 132%
COc1ccnc(Nc2ccc(C)c(C)c2)c1C#N | inconclusive: 102%

SMILES | GTP binding activity (% of control)
COc1ccc(Oc2cnc3ccccc3n2)cc1 | inconclusive: 91%
O=C(NCCN1CCOCC1)c1csc2c1CCCCC2 | inconclusive: 102%
O=C(CNc1cc(S(=O)(=O)N2CCOCC2)ccc1N1CCCC1)N1CCc2ccccc21 | inactive: 101%
CC(C)Nc1nnc(SCC(=O)Nc2ccc3c(c2)C(=O)c2ccccc2C3=O)s1 | inconclusive: 78%
O=C(CS(=O)(=O)Cc1ccccc1)N1CCc2ccccc21 | inconclusive: 105%
Cn1ncc(Cl)c1C(=O)Nc1nc2ccc(Cl)cc2s1 | inconclusive: 104%
COc1ccc(N=C2SC(C(=O)N3CCN(c4ccccc4)CC3)CC(=O)N2C)cc1 (stereo unspecified) | inactive: 99%
CC(=O)c1cccc(NC(=O)Cc2ccc3c(c2)CCCC3)c1 | inactive: 106%
COc1cc(-c2nc(-c3ccncc3)no2)cc(OC)c1OC | inconclusive: 104%
CC1Sc2ccccc2N(CC(=O)N(C(C)C)C(C)C)C1=O (stereo unspecified) | inconclusive: 96%
Cc1cccc(NC(=S)N(CCCN2CCOCC2)Cc2ccccn2)c1 | inconclusive: 107%
CC1SC(C)C(=O)N(CC(=O)Nc2ccc([N+](=O)[O-])cc2)C1=O (stereo unspecified) | inactive: 96%
CCOC(=O)CSc1ccc(C(=O)Nc2ccc(OC)cc2)cn1 | inactive: 99%
CCN(CC)c1ccc(/C=c2/sc3nnc(-c4ccccc4C)n3c2=O)cc1 | inconclusive: 163%
Cc1ccc(SCC(=O)N2CCc3ccccc32)cc1 | inconclusive: 100%
COc1ccc(N(C)C(=O)CCS(=O)(=O)c2cccc3nonc23)cc1 | inconclusive: 90%
CCOC(=O)C1=C2SCCN2C(=O)C(C#N)C1(C)C (stereo unspecified) | inconclusive: 107%
O=C(NC(=S)Nc1cc(C(F)(F)F)ccc1N1CCOCC1)c1sc2ccccc2c1Cl | inconclusive: 102%
CCOc1ccccc1N1C(=O)CC(N(O)c2ccccc2)C1=O (stereo unspecified) | inconclusive: 104%
CC(C)CCNC(=O)CCCn1c(=O)[nH]c2ccc(Br)cc2c1=O | inconclusive: 109%
O=C(NCCCn1ccnc1)C(Cc1ccccc1)N1C(=O)c2ccccc2C1=O (stereo unspecified) | inconclusive: 89%
Cc1ccc(C)c(CSc2ncccc2C(=O)O)c1 | active: 144% [activator]
CC(=O)c1c(C)[nH]c(C(=O)Nc2cccnc2)c1C | inconclusive: 100%

SMILES | GTP binding activity (% of control)
O=C(/C=C/c1ccccc1)NC(=S)Nc1ccc(CN2CCOCC2)cc1 | inconclusive: 103%
C/C(CC(=O)Nc1cccc(C(F)(F)F)c1)=N\NC(=O)C1CCCCC1 | inconclusive: 92%
CCOC(=O)c1cc(-c2ccc(Cl)cc2)nc2c1c(=O)[nH]c(=O)n2CCOC | inactive: 100%
O=c1oc2c3c4c(cc2c2c1CCC2)OCCN4CCC3 | inconclusive: 92%
CC1Cc2ccccc2N1S(=O)(=O)c1cccc(C(=O)NCCCO)c1 (stereo unspecified) | active: 123% [activator]
CC1CN(CC(=O)NN=C(c2ccccc2)c2ccccc2)CC(C)O1 (stereo unspecified) | inactive: 102%
CC/C(O)=C(/C#N)c1nnc2n1CCCCC2 | inactive: 104%
Cc1ccc2c(c1)c(N=NC(N)=O)c(O)n2C | inconclusive: 84%
Cc1nc2nc(C)c(CCC(=O)NC(C)c3ccc4c(c3)OCCO4)c(C)n2n1 (stereo unspecified) | inconclusive: 105%
Cc1ccc(-n2c(=O)[nH]c3c(oc4ccccc43)c2=O)cc1 | active: 135% [activator]
CS(=O)(=O)N1N=C(c2ccccc2)CC1c1ccc2c(c1)OCO2 (stereo unspecified) | inconclusive: 137%
Brc1ccc(CSc2ccc3nnc(-c4ccccn4)n3n2)cc1 | inconclusive: 88%
Cc1cc(NC(=O)CCCn2ccc([N+](=O)[O-])n2)n(Cc2ccc(F)cc2)n1 | inactive: 97%
Cc1ccc(-c2nnc(SCC(=O)N3CCCc4ccccc43)n2N)cc1 | inactive: 107%
Cc1ccc2c(c1)-c1c(cnn1CC(=O)Nc1ccccc1N1CCN(C)CC1)CO2 | inconclusive: 108%
O=C(Nc1ccc(-c2nc3ccc(NC(=O)c4cccs4)cc3[nH]2)cc1)c1cccs1 | inconclusive: 84%
CCOC(=O)N1CCN(C(=O)CCl)CC1 | inactive: 100%
CCCNC(=O)C(=O)NCc1ccccn1 | inconclusive: 60%
CN1CCCC1=Nc1c2c(nc3ccccc13)N(C)CC2 | inconclusive: 104%
CCOC(=O)c1c(C)[nH]c(=S)c(C#N)c1-c1ccc(Cl)cc1 | inconclusive: 92%
Cc1ccc(NC(=O)COC(=O)c2cccc3c2C(=O)c2ccccc2C3=O)c(C)c1 | inconclusive: 95%
COC(=O)c1ccc(COc2ccccc2/C=N/Nc2cccc(C(=O)O)c2)cc1 | active: 141% [activator]
CC(C)CNC(=S)N1CCC(NC(=O)C23CC4CC(CC(C4)C2)C3)CC1 | inconclusive: 106%

SMILES | GTP binding activity (% of control)
COc1cc(/C=N/NC(=O)c2csc3c2CCCC3)cc(OC)c1O | inconclusive: 96%
C=CCNCCCCOc1ccccc1-c1ccccc1 | inconclusive: 106%
O=C(CCn1c(=O)oc2ccccc21)N1CCN(c2ccccc2F)CC1 | inconclusive: 105%
COCCn1c(C)cc(C(=O)CSc2nnc(-c3cccnc3)n2-c2ccccc2F)c1C | inconclusive: 110%
O=C(CSc1nc2ccccc2c(=O)n1-c1ccccc1)N/N=C/C=C/c1ccccc1[N+](=O)[O-] | inconclusive: 98%
CNC(=S)N1CCc2cc(OC)c(OC)cc2C1COc1ccc(F)cc1 (stereo unspecified) | inconclusive: 93%
O=[N+]([O-])c1cc(S(=O)(=O)Nc2cccc(C(F)(F)F)c2)ccc1-n1nnc2ccccc21 | inconclusive: 90%
CCOc1ccc(Nc2nnc(Cc3ccc(OC)cc3)c(=O)[nH]2)cc1 | inactive: 101%
CC(=O)c1cccc(CN2CCCC(CCC(=O)NCc3ccc(C)o3)C2)c1 (stereo unspecified) | inactive: 100%
Cc1nn2c([nH]c(=O)c3ccccc32)c1C=O | inconclusive: 99%
Cc1ccc(S(=O)(=O)c2cc3c(=O)n4ccccc4nc3n(C)c2=N)cc1 | inactive: 93%
COc1ccc(CNC(=O)COC(=O)c2ccc3c(c2)OCCO3)cc1 | inconclusive: 105%
Cc1cc(C)n2ncc(C(=O)NCc3cccnc3)c2n1 | inconclusive: 106%
O=C(NCC1CCCO1)C(c1ccc(F)cc1)N(C(=O)Cn1nnc(-c2ccc(F)cc2)n1)c1cccc(O)c1 (stereo unspecified) | inconclusive: 102%
COc1cc(OC)cc(C2=NCCN2)c1 | inactive: 93%
CC(=O)NS(=O)(=O)c1ccc(NC(=O)CSc2ccc(C)cc2)cc1 | inactive: 91%
COc1ccc(NC(=O)c2ccccc2[N+](=O)[O-])cc1OC | inactive: 105%
O=S(=O)(c1ccccc1)N(CC1CO1)c1ccccc1 (stereo unspecified) | inconclusive: 93%
CC1CN(c2nn3c(=O)c4ccccc4nc3c3ccccc23)CC(C)O1 (stereo unspecified) | inconclusive: 82%
CN(c1ccccc1)S(=O)(=O)c1cccc(NC(=O)CSc2ncc(C(F)(F)F)cc2Cl)c1 | inconclusive: 98%
Cc1cc(F)ccc1NCC(=O)Nc1ccccc1Br | inactive: 104%
CCOC(=O)C1=C(C)NC(C)=C(C(=O)OCC)C1c1cn(-c2ccccc2)nc1-c1ccco1 | inconclusive: 107%
